# Measured values taken from patent publication US20200360479A1 (MEDICAL COLLEGE OF WISCONSIN, published 2020).
# T1: CCR6 (UniProt P51684 1-374, limits assumed)
# T1 sequence (looked up): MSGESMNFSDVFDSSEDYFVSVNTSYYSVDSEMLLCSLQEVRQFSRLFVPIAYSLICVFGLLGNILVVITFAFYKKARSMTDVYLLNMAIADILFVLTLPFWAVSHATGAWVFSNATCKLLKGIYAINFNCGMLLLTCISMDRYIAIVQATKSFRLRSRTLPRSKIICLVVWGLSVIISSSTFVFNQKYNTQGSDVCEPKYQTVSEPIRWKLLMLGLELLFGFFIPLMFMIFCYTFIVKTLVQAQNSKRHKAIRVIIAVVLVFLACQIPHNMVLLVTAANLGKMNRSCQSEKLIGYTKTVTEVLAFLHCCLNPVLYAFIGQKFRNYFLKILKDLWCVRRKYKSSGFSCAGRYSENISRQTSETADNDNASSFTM
# B1: CCL20 WT (ligand)
# chain: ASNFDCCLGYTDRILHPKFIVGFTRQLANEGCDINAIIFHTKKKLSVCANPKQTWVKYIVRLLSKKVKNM
# notes: also called wild-type CCL20; wild type CCL20
# B2: CCL20 S64C locked dimer (ligand)
# chain: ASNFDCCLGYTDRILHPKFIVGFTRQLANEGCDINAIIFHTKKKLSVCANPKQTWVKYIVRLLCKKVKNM
# modifications: intermolecular disulfide bond between Cys 64 of the two monomers
# notes: also called CCL20LD; CCL20 locked dimer
# Target: T1, CCR6
# Assay: cell-based or functional assay
Binder,"3H-IP3 accumulation in CCR6+ COS-7 cells, logEC50",CCR6+ Jurkat cell calcium flux EC50 [nM],CCR6+ Jurkat cell migration EC50 [nM],"beta-arrestin-2 recruitment to CCR6 in U2OS cells, logEC50","beta-arrestin-2 recruitment to CCR6 in transfected U2OS cells, EC50 [nM]","intracellular calcium release in CCR6+ Jurkat cells, EC50 [nM]","intracellular calcium release in CCR6+ Jurkat cells, logEC50"
B1,-9.37,76,~15,-8.95,1.1,75,-7.12
B2,-7.38,700,,-7.07,86.2,715,-6.14
